The other results are listed elsewhere or left out. One pool of 16,384 single-stranded DNAs met each Rep nickase domain in vitro (3 µM enzyme, 1 h, 37 °C); shown is the middle of each 90-letter strand. Uncut reads are compared with the no-enzyme pool on a log2 scale; the lower, the more was cut; hits are not called. Counts are relative to all reads; values above 0 arise when much of the pool is cut.
system: T1, Rep nickase domain of faba bean necrotic yellows virus; assay: uncleaved DNA left, log2 of reads against the no-enzyme library (log2 ratio); higher = less cleavage (more negative = more Rep cleavage of the k-mer); sequences stand for … in CTCGTCCG…ACCGGAGA
T1 sequence (residues 1-98 of Rep, tag left off): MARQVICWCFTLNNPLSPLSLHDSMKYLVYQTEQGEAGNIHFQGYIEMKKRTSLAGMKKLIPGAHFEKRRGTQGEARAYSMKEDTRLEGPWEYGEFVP
Description: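 A pool of 90-nt single-stranded DNAs with seven random bases just before the constant AC of the nick site (name = the seven bases) was cut by 3 µM recombinant His6-SUMO-tagged Rep nickase domain (300 nM DNA, 50 mM HEPES pH 8.0, 50 mM NaCl, 1 mM MnCl2, 1 h, 37 °C, three replicates). Uncut DNA was amplified and sequenced.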

Row | Sequence | uncleaved DNA left (log2)
1 | TCTAGCG | 0.0764
2 | TATCAAA | -0.0303
3 | CTTTGAA | -0.0196
4 | AATGGGA | 0.0477
5 | CCGCACT | -0.043
6 | CTAGCTA | -0.182
7 | TCGTTGC | 0.0957
8 | CCTACCC | 0.0789
9 | TAGAGCG | 0.00409
10 | GAAGGGG | 0.0183
11 | ACGTAGA | 0.107
12 | TGTCTAG | -0.00292
13 | CGGGACG | 0.0642
14 | CTCGCAC | 0.134
15 | TGAATGT | -0.0464
16 | AATGCAT | -0.00727
17 | ACCACAA | 0.0313
18 | CGTCGAT | -0.224
19 | GGTAGGC | -0.0445
20 | GTTCGAC | -0.0311

Row | Sequence | uncleaved DNA left (log2)
21 | CGGCTGA | 0.00382
22 | CCTGCAG | -0.115
23 | GCCAGTA | 0.206
24 | CTAGGCC | -0.108
25 | GCCGCCC | 0.109
26 | TATGTCT | -0.159
27 | CGAGATT | -0.0127
28 | TCTAACC | 0.00576
29 | ATCGCGG | -0.0459
30 | AGGAGAA | 0.00503
31 | GGCGATG | -0.127
32 | GATATTT | 0.0854
33 | AGTAATG | 0.114
34 | GCTAGTA | 0.01
35 | TGCCGGA | -0.001
36 | GTCTAAG | 0.239
37 | CCTCTTC | -0.0965
38 | CCACTGA | 0.032
39 | ATGACGG | 0.124
40 | CAGAGTC | -0.00305
